“And” between values parts separate entries of the source, which are not always exact repeats. Equal values may be shown once. Among all 360,000 compounds or so, about 2,600 (0.72%) were called active. This list was built around the results that the source calls inconclusive (neither active nor inactive); the mix of calls is not that of the screen. The call rests on the fitted dose curve; in most records, active means well fitted inhibition curve with a large enough effect; inconclusive means small, poorly fitted or top-dose-only effect; inactive means no such curve, though single readings can be large or run the other way. Potencies of inconclusive entries are doubtful fits and often do not repeat.
Experiment: Primary qHTS for Inhibitors of ATXN expression; further: nearly all actives have a fitted effect of over 55% in size
Conditions: HEK-293 ATXN2-luciferase reporter, luminescence, 24 h; activity change, negative = inhibition: at 57 µM (top of the series)
How it was run: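 qHTS (up to 57 uM final) was run with 24 h compound exposure of reporter cells at 37 °C. Each well was multiplexed: SteadyGlo luminescence measured ATXN2-luciferase expression after a fluorogenic Gly-Phe-AFC viability readout (25 uM final).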
On the % scale 0 is the no-effect control and ±100 the full control effect; potency means the concentration at half of the fitted maximal effect; tags describe the fitted curve by direction and shape.

SMILES	Potency	activity change, negative = inhibition
COc1ccc(-c2nc(NC(=O)C3CCN(c4nc5ccccc5o4)CC3)sc2C)cc1	inconclusive: 14.1 µM [inhibitor, partial curve]	
CC(C)(C)C1CCC(CC2=C(O)c3ccccc3C(=O)C2=O)CC1 (stereo not drawn)	inconclusive: 39.8 µM [inhibitor, single point]	
CCN(CC)CCOc1ccc2nc(N(C)C)sc2c1		inactive: 33%
CC1CCCC(NCC(O)COC(c2ccc(F)cc2)c2ccc(F)cc2)C1C (stereo not drawn)	inconclusive: 21.2 µM [inhibitor, single point]	
Nc1ccn(C2OC(COP(=O)(O)O)C(O)C2O)c(=O)n1 (stereo not drawn)	inconclusive: 15 µM [inhibitor, partial curve, poor fit]	
c1ccc(-c2nnc(-c3ccccn3)s2)nc1	active: 8.91 µM	
CCn1ccc(C(=O)Nc2ccc(S(=O)(=O)Nc3ccccc3OC)cc2)n1		inactive: -5.22%
COc1ccc(N(C(=O)c2snc(C(N)=O)c2N)C(C(=O)NCc2ccc(F)cc2)c2ccc(O)cc2)cc1 (stereo not drawn)	inconclusive: 35.5 µM [inhibitor, single point]	
Cc1ccc(Cn2ncc(Cl)c(Cl)c2=O)cc1	inconclusive: 39.8 µM [inhibitor, single point]	
CCOC(=O)N1CCC(Nc2ncnc3c2cnn3-c2ccc(C)cc2C)CC1	inconclusive: 28.2 µM [inhibitor, single point]	
C=CC(=O)Nc1ccc(Nc2nc(NC3CCC(N(C)C)CC3)nc3c2ncn3C(C)C)cc1 (stereo not drawn)	inconclusive: 0.562 µM [inhibitor, partial curve, poor fit]	
Oc1c(CN2CCN(c3ccccn3)CC2)cc(Cl)c2cccnc12	inconclusive: 3.55 µM [inhibitor, full curve, poor fit]	
COc1cc(OC)c2nc(C)c3c(c2c1)N(c1ccc(O)cc1)CC3	inconclusive: 22.4 µM [inhibitor, single point]	
Cc1ccc(OC(=O)CSc2nnc(CNC(=O)c3ccccc3)o2)cc1		inactive: -3.5%
CC(=O)N1CCCc2cc(S(=O)(=O)N3CCCC(C(=O)N4CCN(c5cc(C)ccc5C)CC4)C3)ccc21 (stereo not drawn)	active: 25.1 µM and active: 20 µM	
CCCCCCOc1ccc(C(=O)O)cc1		inactive: 0%
CCc1ccc(NC(=O)Cn2c(=O)n(CCCC(=O)NCc3ccco3)c(=O)c3ccccc32)cc1	inconclusive: 14.1 µM [inhibitor, partial curve, poor fit]	
COc1ccc(CCNC(=O)C2CCN(S(=O)(=O)c3ccc(C)cc3)CC2)cc1	inconclusive: 18.9 µM [inhibitor, partial curve, poor fit]	

From PubChem BioAssay AID1745845 (National Center for Advancing Translational Sciences (NCATS), 2022)
